# The full ranking holds about 33,000 sequences; the median of “E-score (dimensionless, -0.5 to 0.5)” is about -0.058, and the highest 2% start at about 0.35. The list shows a part of the results.
# System: MvaT
# Test: PBM 8-mer E-score (mean of HK and ME arrays) (E-score (dimensionless, -0.5 to 0.5)); higher = stronger relative binding preference; most listed sequences are background and not binding sites
# Summary of the method: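 Full-length P. aeruginosa MvaT, with glutathione S-transferase fused to its N-terminus (cloned into pTH6838 by isothermal assembly), was tested by protein binding microarray using a previously described protocol. Two universal double-stranded 60-mer arrays (ME and HK) were used, each with a constant 25-mer primer region and a variable 35-mer region covering all 8-mers. The rank-based 8-mer E-score (-0.5 to 0.5) is the mean of the two arrays, parsed with a custom Python script.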
row,Sequence,PBM 8-mer E-score
1,CGCATTCA,0.0227
2,GTCTCTTA,0.0121
3,CTAGTGGA,-0.157
4,AATGCTAC,-0.0157
5,CCTTGGCG,-0.22
6,CGAATAGA,0.00156
7,ACTTATTA,0.416
8,ACCAGTTC,-0.15
9,CATAAGCG,0.000885
10,GCACTCGA,-0.153
11,CTTCCACC,-0.218
12,CCGGTACG,-0.374
13,AGGAGTAA,-0.132
14,GAGCTTAA,-0.0447
15,ATGCTATG,-0.0899
16,GCTGTTCC,-0.188
17,ATCAGGGA,-0.207
18,AAGTTGGC,0.172
19,CGTGTGAC,-0.24
20,GCCATCCA,-0.185
21,ATCTAGTA,0.0157
22,GTCCGTAA,0.084
23,CCGGAGAA,-0.235
24,CATCGAAG,-0.071
25,AATTCTGG,0.076

row,Sequence,PBM 8-mer E-score
1,ATTCGTGC,0.0844
2,AACAACCC,-0.0267
3,CTGTCCTA,-0.112
4,GATTCGTA,0.0196
5,ACTAGTCG,-0.0839
6,CCCCTTAG,-0.251
7,ACTCTAAG,0.0181
8,CGATTGCA,0.0134
9,AAGTGCTG,-0.134
10,AAAGGCTT,-0.0599
11,AATGTTGA,0.0817
12,TGATAGAA,0.186
13,GATTCTTA,0.0999
14,TCTCCAAA,-0.0267
15,ACTCATTC,-0.0371
16,GTATATTA,0.438
17,CGCTATCC,-0.149
18,AGGTCTAC,-0.196
19,CTACCCTA,-0.137
20,CCAGACAA,-0.0578
21,TACTACGA,0.133
22,TAACCCGA,0.0362
23,TCCTCTAA,0.0632
24,TAGGGTGA,-0.102
25,GGTCACAC,-0.173

row,Sequence,PBM 8-mer E-score
1,ACGACTTA,0.139
2,GACTGCAC,-0.245
3,CTGAAGAC,-0.085
4,CCGAGTAA,0.013
5,CAGCACCG,-0.196
6,AAGGGATC,-0.25
7,CGGAGATA,-0.0357
8,AGTCCAGA,-0.101
9,AGGAGCTA,-0.0876
10,ATCCCGTA,-0.0399
11,ATCGGGAC,-0.109
12,CGTCTCCA,-0.222
13,ACAAATAC,0.247
14,ACATCTTG,-0.000188
15,AGATATTC,0.209
16,AATAAACG,0.328
17,CAGAGTGC,-0.202
18,AGCCTCTA,-0.137
19,CCCACCCC,-0.408
20,AACAGGGA,-0.115
21,CGAATGCA,-0.0445
22,CATGTGTA,0.0855
23,AGGCCAAG,-0.132
24,AGGAGCAC,-0.249
25,AACCCTAC,-0.0186

row,Sequence,PBM 8-mer E-score
1,ATGGACCC,-0.172
2,ATTATACG,0.274
3,GTTTACAA,0.154
4,CTCATTAC,0.0726
5,TCCGCCAA,-0.112
6,GGCATGCA,-0.0713
7,ACGGCCTC,-0.15
8,ACTTGCTG,0.0741
9,GGCTCGTA,-0.206
10,AGCGCTGC,-0.264
11,CAACACAA,0.164
12,ATAACATG,0.235
13,ACCCAATA,0.151
14,CCGACGCA,-0.181
15,AACCGGAA,0.0189
16,GCGCGGCC,-0.244
17,ACGCCCTG,-0.211
18,CATGCGCA,-0.0842
19,AATGGGCT,-0.0758
20,TGGGGTAA,0.0888
21,GCTTTAAA,0.249
22,AAGAGGGG,-0.237
23,CCGCGTCG,-0.0685
24,ATACATAT,0.394
25,AATGTAAG,0.293

row,Sequence,PBM 8-mer E-score
1,ACGCAGGA,-0.268
2,GATAATAC,0.301
3,CCCTCACC,-0.0385
4,CGCAAATA,0.181
5,GGGCGTCA,-0.218
6,GCCGCCAA,-0.22
7,GATTTCAC,-0.0165
8,ACGAAATC,0.0397
9,AGTCGAAC,-0.0143
10,GAACATGC,-0.0289
11,CAATCGCC,-0.139
12,AGCGATCG,-0.212
13,ATCAGCAC,-0.0229
14,AATTCAAT,0.294
15,CAATACGG,0.0192
16,CCGTCGCA,-0.136
17,ACTAGCTC,0.00464
18,GCGCGTCA,-0.141
19,CCGTCTCA,-0.119
20,AATTTATA,0.46
21,CATGAAGG,-0.184
22,ATTGGAGG,-0.0643
23,CATTCGGG,-0.0224
24,AGCAAGTG,0.016
25,CTTGTTAC,0.143

row,Sequence,PBM 8-mer E-score
1,ATGGTTAA,0.236
2,ATGCGACC,-0.244
3,CGACTACC,-0.19
4,GCATCCAA,-0.0952
5,AAGGCCTT,-0.0932
6,ATCTCGGG,-0.161
7,GCAGACCA,-0.131
8,ACGCGACA,-0.0585
9,GCACTTTA,0.14
10,ACTCCTGC,-0.156
11,AAGCAGAG,-0.172
12,GTTTACCA,0.0668
13,ATCGATAG,0.147
14,CATCTTAG,-0.0403
15,ATCACCTC,-0.0894
16,GTAGGGGA,-0.212
17,ATGCCAAT,0.0128
18,AGCGTCCC,-0.295
19,GAATAAAC,0.192
20,GCGTGGTA,-0.0771
21,ACGAGGAA,-0.000787
22,ACGCGACT,-0.096
23,AGCGGTAC,-0.0964
24,AAAGGATA,0.119
25,ATTGAGAG,-0.0841

row,Sequence,PBM 8-mer E-score
1,ACTGGTCA,-0.137
2,GATTATAA,0.41
3,AGTCCGAT,-0.143
4,AATCACAA,0.126
5,GTCTCAAC,-0.00376
6,AAGGGCAT,-0.0916
7,CCGGGGAA,-0.107
8,CGCGAGCC,-0.289
9,AATGGAAA,0.154
10,CGGCTCAC,-0.272
11,GCCGGTCC,-0.109
12,GCAGAGAA,0.0285
13,ACAGTAGA,0.0623
14,ATCCTAGA,-0.198
15,AGGGTACG,-0.212
16,ATAGTCGG,0.0516
17,GGCGCGGA,-0.309
18,ACGTCCCC,-0.161
19,AGTGTGAC,0.0563
20,CAGTAGGG,-0.228
21,AGCTGATG,-0.0727
22,CCGGACTC,-0.117

# Reference: the supplement of paper PMC4466236
